The results in this text go back to PubChem BioAssay AID1508623 (National Center for Advancing Translational Sciences (NCATS), 2021).

Among all 48,000 compounds or so, about 450 (0.94%) were called active. Not shown: some 19% with an inconclusive outcome. Calls come from the whole dose curve; as a rule, active = well fitted inhibition curve with a large enough effect; inconclusive = small, poorly fitted or top-dose-only effect; inactive = no such curve, though single readings can be large or run the other way. The list shows a part of the results.

The assay in a line: Primary qHTS for Identification of Small Molecule Inhibitors of Huntingtin Promoter Activity. Note: nearly all actives have a fitted effect of over 50% in size. The settings on record: HEK293 HTT promoter firefly luciferase reporter (activity 0% = vehicle and -100% = no light), 24 h; series mostly up to 57.5 µM; activity change, negative = inhibition: at the top concentration. The method in brief: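 Firefly luciferase readout (Dual-Glo, 10 min RT) after 24 h, 37 °C compound exposure (final up to 57.5 uM) of HEK293 reporter cells cultured 24 h beforehand; PTC124 at 50 uM final as control inhibitor; activity scaled vehicle 0%, zero RLU -100%.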
For `CCOc1cc(C(=O)Nc2ccc(S(=O)(=O)Nc3cc(OC)nc(OC)n3)cc2)cc(OCC)c1OCC`, the “activity change, negative = inhibition” value is inactive: -17.7%.

Take `COC(=O)c1ccc(Cn2c(SCC(=O)N(C)c3ccccc3)nc3ccccc32)cc1`: the “activity change, negative = inhibition” value was inactive: -4.57%.

On to `COCCNC(=O)CSc1nc(-c2ccccc2C)nc2c1c(=O)n(C)c(=O)n2C`, for which the “activity change, negative = inhibition” value is inactive: -1.9%.

Take `NS(=O)(=O)c1ccc2nc(NC(=O)COc3ccccc3)sc2c1`: the “activity change, negative = inhibition” value is inactive: -6.31%.

As to `CN(Cc1ccco1)S(=O)(=O)c1nnc(NC(=O)c2cccc(Cl)c2)s1`, the “activity change, negative = inhibition” value was inactive: -15.5%.

As for `CCCN(CCC)C(=O)c1cc2c(=O)n3cccc(C)c3nc2n1C`, the “activity change, negative = inhibition” value was inactive: 2.37%.

`Cc1ccc2cccc(NC(=O)c3ccc(-c4cccc(Cl)c4)o3)c2n1`: the “activity change, negative = inhibition” value was inactive: -14.3%.

Turning to `CC(C)C(NS(=O)(=O)c1ccc2c(c1)oc(=O)n2C)C(=O)NCCc1ccc(Cl)cc1` (configuration not stated), the “activity change, negative = inhibition” value was inactive: -4.72%.

For the compound `Cc1ccc(-c2nnc(Nc3ccc(S(N)(=O)=O)cc3)c3ccccc23)cc1S(=O)(=O)N1CCCCC1`, the “activity change, negative = inhibition” value was inactive: -21.5%.

For the compound `CCOCCCNC(=O)C(c1ccc(Cl)cc1)N(Cc1cccs1)C(=O)c1ccc(NC(C)=O)cc1` (configuration not stated), the “activity change, negative = inhibition” value is inactive: -17.4%.

For the compound `CCC(=O)N1CCc2cc(Br)cc(S(=O)(=O)CCC(=O)N(CC)Cc3ccccc3)c21`, the “activity change, negative = inhibition” value was inactive: -16.1%.

For `CC(C)(Oc1ccc(Cl)cc1)C(=O)Nc1nc2ccc(S(C)(=O)=O)cc2s1`, the activity change, negative = inhibition is inactive: -8.33% [at 11.5 µM].

Consider `CN(C)c1ccc(C(CNC(=O)c2c(F)cccc2Cl)N2CCOCC2)cc1` (configuration not stated), for which the “activity change, negative = inhibition” value was inactive: 37.7%.

In the case of `COc1ccc(-n2c(=O)c3c4c(sc3n3c(SCCC(C)C)nnc23)COC(C(C)C)C4)cc1` (configuration not stated), the “activity change, negative = inhibition” value is inactive: 3.6%.

With `CC(=O)N1CCc2cc(CNS(=O)(=O)c3ccc(Cl)s3)ccc21`, the “activity change, negative = inhibition” value is inactive: 1.12%.

Turning to `COc1cc(OC)cc(C(=O)Nc2ccc3oc(-c4cccc5c(Br)cccc45)nc3c2)c1`, the “activity change, negative = inhibition” value is inactive: -5.22%.

Consider `CN1C(=O)C2(SCC(=O)N2c2ccc(F)cc2)c2ccccc21` (configuration not stated), for which the “activity change, negative = inhibition” value is inactive: -16.9%.

Turning to `CCOc1ccc(OCC)c(NS(=O)(=O)c2cc(-c3onc(C)c3C)ccc2OC)c1`, the “activity change, negative = inhibition” value was inactive: 3.28%.

For `CCN1CCN(CCCNC(=O)c2ccc3nc(Cc4ccccc4)oc3c2)CC1`, the “activity change, negative = inhibition” value is inactive: -10.8%.

Turning to `Cc1cccc(N2CCN(c3nc4ccc(C)cc4n4cnnc34)CC2C)c1` (configuration not stated), the “activity change, negative = inhibition” value was inactive: -19%.

As for `O=C(NCC(c1ccc2c(c1)OCO2)N1CCOCC1)c1c(F)cccc1F` (configuration not stated), the “activity change, negative = inhibition” value is inactive: 4.25%.

With `CCOc1ccccc1N(CC)C(=O)c1noc2c1COc1ccc(C)cc1-2`, the “activity change, negative = inhibition” value was inactive: -29.5%.

As for `CCn1cc(C(=O)NCCc2ccc(Cl)cc2)c(=O)c2cc(S(=O)(=O)N3CCC(C)CC3)ccc21`, the “activity change, negative = inhibition” value is inactive: 1.25%.

On to `O=C(NC1CCCCC1)c1ccc2c(c1)N(Cc1ccc(Cl)cc1)C(=O)c1ccccc1S2=O` (configuration not stated), for which the “activity change, negative = inhibition” value was inactive: -21.2%.

As for `O=C(c1ccc(F)cc1)n1nc(-c2ccccc2)nc1NCc1ccco1`, the “activity change, negative = inhibition” value was inactive: 15.9%.

For the compound `Cc1cccc(NC(=O)CCNS(=O)(=O)c2cccc3nsnc23)c1C`, the “activity change, negative = inhibition” value was inactive: -8.57%.

Turning to `COc1ccc(N(CC(=O)N2CCN(c3ccccc3F)CC2)S(=O)(=O)c2c(C)n[nH]c2C)cc1`, the “activity change, negative = inhibition” value is inactive: -7.98%.

`CC1(C)CCC[C@@]2(C)[C@@H]1CC[C@@]1(C)OC(=O)C[C@H]21`: the “activity change, negative = inhibition” value is inactive: -9.53%.

As to `CCn1c(C)c(C)c2cc(C(=O)NCc3cccc(C)c3)ccc21`, the “activity change, negative = inhibition” value was inactive: -3.61%.

Turning to `O=C(c1ccccc1)N(Cc1ccco1)Cc1cccs1`, the “activity change, negative = inhibition” value is inactive: -14.4%.

Turning to `Cc1cccc(C(=O)Nc2ccc(C(=O)OCc3cc(=O)n4nc(CC(C)C)sc4n3)cc2)c1`, the “activity change, negative = inhibition” value was inactive: 14.2%.

As for `COc1cccc(CNC(=O)CCc2c(C)c3cc4c(C)coc4c(C)c3oc2=O)c1`, the “activity change, negative = inhibition” value is inactive: -3.92%.

As for `COc1ccc(OCC(=O)N2CCN(C(=O)c3cccc(OC)c3)CC2)cc1`, the “activity change, negative = inhibition” value was inactive: -0.686%.

With `CCc1ccccc1NC(=O)CCS(=O)(=O)c1cccc2nonc12`, the “activity change, negative = inhibition” value is inactive: -2.81%.

As for `Cc1ccc(-n2ncc3c(N4CCN(C)CC4)ncnc32)cc1C`, the “activity change, negative = inhibition” value is inactive: -32.5%.

As for `COc1ccccc1NC(=O)c1sc2nc(C)c(C(=O)Nc3ccc(C)cc3C)c(-c3ccc(C)o3)c2c1N`, the “activity change, negative = inhibition” value is inactive: -12.7%.

In the case of `Cc1cccc(C(=O)NCC(=O)OCc2cc(=O)n3nc(C4CC4)sc3n2)c1`, the “activity change, negative = inhibition” value was inactive: -11.3%.

For `Cc1cc(C)cc(NC(=O)CCc2c(C)nc3c4cccnc4nn3c2C)c1`, the “activity change, negative = inhibition” value was inactive: -15.9%.

Turning to `CCOC(=O)Cn1c(=O)n(C2CCCCC2)c2nc(-c3cccc(OC)c3)nc(C(N)=O)c21`, the “activity change, negative = inhibition” value was inactive: -5.79%.

Take `CCc1nn2c(=O)c(S(=O)(=O)Nc3cccc(F)c3)c(C)nc2s1`: the “activity change, negative = inhibition” value was inactive: -28.2%.

As to `CCC(Sc1nc2nccnc2c(=O)n1Cc1ccc(C)cc1)C(=O)NC1CCCCC1` (configuration not stated), the “activity change, negative = inhibition” value is inactive: -17.4%.

As to `Cc1c2cnn(-c3ccccc3)c(=O)c2c(C)n1CC(=O)NCc1ccccc1`, the “activity change, negative = inhibition” value is inactive: -17.7%.

With `Cc1cccc(-n2c(SCC(=O)c3ccccc3)nnc2-c2ccc(Br)cc2)c1`, the “activity change, negative = inhibition” value was inactive: -15.8%.

As to `CCCNC(=O)N1CCN(S(=O)(=O)c2ccc3c(ccn3C)c2)CC1`, the “activity change, negative = inhibition” value was inactive: -42.6%.

For `COc1cc2c(c(OC)c1)C(c1cc(OC)c(OC)c(OC)c1)CC(=O)N2` (configuration not stated), the “activity change, negative = inhibition” value is inactive: -3.35%.

In the case of `CC(CNC(=O)CCCn1c(=O)c2cccn2c2cccnc21)c1ccccc1` (configuration not stated), the “activity change, negative = inhibition” value is inactive: -8.81%.

On to `COC(=O)c1ccc(O)cc1`, for which the “activity change, negative = inhibition” value is inactive: 19%.
